In PubChem BioAssay AID624296 (National Center for Advancing Translational Sciences (NCATS), 2012):
In all, about 350,000 compounds went through this assay and about 9,900 (2.8%) were called active. The inconclusive results got no clear call from the source; some entries with a clear call stand among them for comparison. Calls come from the whole dose curve; as a rule, active = well fitted activation curve with a large enough effect; inconclusive = small, poorly fitted or top-dose-only effect; inactive = no such curve, though single readings can be large or run the other way. Potencies of inconclusive entries are left out as doubtful fits.

Assay: A quantitative high throughput screen for small molecules that induce DNA re-replication in MCF 10a normal breast cells. For activity, positive = re-replication: % of control where 0% means no effect. Note: nearly all actives have a fitted effect of over 50% in size.
Details: MCF 10A DNA re-replication, Hoechst nuclear intensity, 48 h; activity, positive = re-replication: at 46.1 µM (top of the series)
Potency is the fitted concentration of half-maximal effect; tags give direction and shape of the fitted curve.

Compound	Potency	activity, positive = re-replication
CC(Sc1ccccc1F)C(=O)Nc1ccc2c(c1)OCCO2 (centres undefined)	inactive	
Cc1cc(O)c(Oc2cc(C)cc(O)c2O)c(O)c1	inactive	
CCOC(=O)Cn1c(S(=O)(=O)Cc2cccc(F)c2)nc(-c2ccccc2)c1-c1ccccc1	inconclusive [activator, partial curve, poor fit]	
C[C@@]12C(=O)Nc3ccc(Br)cc3C(=O)N1[C@H]1c3ccccc3OC[C@@H]1[C@@H]2c1ccccc1	inconclusive [activator, partial curve]	
Nc1cc(SCc2ccc([N+](=O)[O-])cc2)ncn1	inactive	
CC(=O)c1cccc(NC(=O)N2CCCC2C(=O)Nc2c(C)cccc2C)c1 (centres undefined)	inconclusive [activator, single point]	
Cc1nc([N+](=O)[O-])c(Br)n1CC(=O)c1ccccc1	inconclusive [activator, single point]	
Cc1ccc(-c2nc3ncccc3o2)cc1NC(=O)C(C)C	inactive	
COc1cc2c(cc1OC)C(C)N(C(=O)Cc1ccc(C(F)(F)F)cc1)CC2 (centres undefined)	inconclusive [activator, single point]	
Fc1ccccc1COc1ccc(/C=N/NC(=S)NCc2ccccc2)cc1	inconclusive [activator, partial curve]	
Cc1cc(O)c(C(=O)/C=C/c2ccccc2)c(=O)o1	inconclusive [activator, single point]	
CCOC(=O)c1c(C)[nH]c(C(=O)COC(=O)/C=C/c2ccc(O)c(OC)c2)c1C	inconclusive [activator, single point]	
CCOC(=O)Cn1c(S(=O)(=O)Cc2ccc(Cl)cc2)nc(-c2ccccc2)c1-c1ccccc1	inconclusive [activator, partial curve, poor fit]	
c1ccc(C2Nc3ccccc3-c3nc4ccccc4n32)cc1 (centres undefined)	inconclusive [activator, partial curve, poor fit]	
Cn1cc(C(c2ccccn2)c2cn(C)c3ccccc23)c2ccccc21	inconclusive [activator, single point]	
Cc1cc(C)cc(NS(=O)(=O)CCCS(=O)(=O)Nc2cc(C)cc(C)c2)c1	inconclusive [activator, single point]	
O=C(O)COc1ccc(/C=C/C(=O)c2ccc(C3CCCCC3)cc2)cc1	inconclusive [activator, single point]	
CCOC(=O)c1c2ccc(OCC(=O)N/N=C/c3ccc(C)cc3)cc2n2ccccc12	active: 2.59 µM	
COc1ccc(CCNC(=O)C2CCN(C(=O)N(C)C)CC2)cc1OC	inconclusive [activator, full curve, poor fit]	
C=CCOc1c2ccc(C(=O)NC3CCCc4ccccc43)cc2nn1C (centres undefined)	inconclusive [activator, single point]	
COc1ccc(C(=O)NCCCCCC(=O)N/N=C/c2ccco2)cc1OC	inconclusive [activator, partial curve, poor fit]	
O=C1CCN(Cc2ccccc2)CCN1[C@H](COc1ccccc1)Cc1ccccc1	inactive	
O=C(O)CNS(=O)(=O)c1ccc2c(c1)C(=O)c1cc(S(=O)(=O)NCC(=O)O)ccc1-2	inactive	

Compound	Potency	activity, positive = re-replication
O=C(/C=C/Nc1ccc(Br)cn1)c1cccc(OC(F)F)c1	inconclusive [activator, partial curve, poor fit]	
COC(=O)C1=CN(C)C=C(C(=O)OC)C1c1ccc(Cl)cc1Cl	inconclusive [activator, single point]	
Cc1ccc(C(=O)Nc2nnc(S(=O)(=O)Nc3ccccc3C)s2)cc1C	inconclusive [activator, single point]	
CCOc1ccc(CN2C(=O)c3ccccc3Sc3ccc(C(=O)NCCCN4CCOCC4)cc32)cc1	active: 20.6 µM	
COCc1ccc(-c2ccc3c(c2)c(C#Cc2ccsc2)c(-c2cc(OC)cc(OC)c2)n3C)cc1	inconclusive [activator, single point]	
Nc1nc(NCCCN2CCOCC2)nc(Nc2ccc(F)cc2)c1[N+](=O)[O-]	inconclusive [activator, partial curve, poor fit]	
COc1ccc2cc(C#N)c(N3CCOCC3)nc2c1	inactive	
Cc1ccc(-n2nnnc2SCC(=O)N2CCc3ccccc3C2)cc1	inactive	
COc1ccc(S(=O)(=O)N(C)C[C@H]2Oc3ccc(NC(=O)NC(C)C)cc3C(=O)N([C@H](C)CO)C[C@@H]2C)cc1	inconclusive [activator, single point]	
Cc1ccc(NC(=O)CNCc2ccccc2Cl)cc1S(=O)(=O)N(C)C	inactive	
CCN(CC)c1ccc(/C=N/NC(=O)c2cnccn2)c(O)c1	active: 18.4 µM	
CC(=O)N1CCn2c3c(c4cc(C)ccc42)CCCC31 (centres undefined)	inactive	
Cc1cc(C(=O)CCl)c(C)n1CCc1ccc(Cl)cc1	active: 16.4 µM	
CCOc1ccc(C(=O)Nc2ccc(NC(=O)c3ccccc3)cc2)cc1Br	inactive	
CCCOc1ccc(C(=O)N2CCN(c3ccc(N)cc3Cl)CC2)cc1	inactive	
Cc1cccc(-c2ncc(CN3CCC(CO)(CCCc4ccccc4)CC3)cn2)c1	active: 18.4 µM	
O=C(Nc1ccccc1)Nc1cccc2ccccc12	inconclusive [activator, partial curve, poor fit]	
CN(CC(=O)Nc1ccc(Cl)c(C(F)(F)F)c1)C(=O)c1cccs1	inactive	
C[N+]12CCC(CC1)C(OC(=O)C(O)(c1ccccc1)c1ccccc1)C2 (centres undefined)	inactive	
CC(C)c1ccc(/C=C/C2=NNC(=O)CC2)cc1	inconclusive [activator, single point]	
CC1=NN(c2ccccc2)C(=O)C1N=Nc1cccc(O)c1 (centres undefined)	inconclusive [activator, partial curve, poor fit]	
COCc1cc(C)n(CC(=O)NCc2ccccc2)c(=O)c1C#N	inactive	
Cc1nnc(NC(=O)c2cc3ccccc3o2)s1	inconclusive [activator, single point]	

Compound	Potency	activity, positive = re-replication
CCN1C(=O)S/C(=C/c2ccsc2)C1=O	inconclusive [activator, single point]	
Cc1ccc(CNS(=O)(=O)c2ccc3c(c2)CCN3C(=O)CCCC(=O)O)cc1	inconclusive [activator, partial curve, poor fit]	
CCCCn1c(CCNC(=O)c2ccco2)nc2ccccc21		inconclusive: -36.2% [activator]
N#C/C(=C\c1sc(N2CCOCC2)nc1-c1ccccc1)C(=O)Nc1cccc2ccccc12	inconclusive [activator, single point]	
O=C(Nc1cccc2ccccc12)c1ccc(OC(=S)N2CCOCC2)cc1	inconclusive [activator, single point]	
Cc1cc(C)cc(NS(=O)(=O)c2ccc3[nH]c(=O)ccc3c2)c1	inconclusive [activator, single point]	
COc1ccc(C(CNC(=O)COc2ccc(Cl)c(C)c2)N2CCCCC2)cc1 (centres undefined)	inconclusive [activator, single point]	
CCOC(=O)N1CCN(CCC(=O)c2ccc(Br)cc2)CC1	inconclusive [activator, single point]	
COc1ccc(C(=O)OCC(=O)Nc2ccccc2)cc1[N+](=O)[O-]	inactive	
Cc1ccc(S(=O)(=O)N(C)C)cc1NC(=S)NC12CC3CC(CC(C3)C1)C2	inconclusive [activator, single point]	
CC(C)COc1cccc(C(=O)Nc2ccc(CN3CCOCC3)cc2)c1	inconclusive [activator, partial curve, poor fit]	
Cc1ccc(-n2nnc3c(=O)oc4ccccc4c32)cc1	inactive	
Cc1ccc(Nc2nc(CSc3nnc(-c4cccnc4)n3-c3ccccc3F)cs2)cc1	inactive	
Cc1ccc(N(CC(O)CN2CCCCC2)S(=O)(=O)c2ccccc2[N+](=O)[O-])cc1 (centres undefined)	inconclusive [activator, single point]	
CN(C)c1ccc(C(C[N+](=O)[O-])c2c(N)n(C)c(=O)n(C)c2=O)c(F)c1C#N (centres undefined)	active: 3.66 µM	
COc1cccc(NC(=O)C(NC2CCCC2)c2ccccc2)c1 (centres undefined)	inconclusive [activator, partial curve, poor fit]	
CCCCNC(=S)N(CCO)Cc1cc2cc3c(cc2[nH]c1=O)OCCO3	inconclusive [activator, single point]	
O=S(=O)(c1ccccc1)c1nc(-c2ccco2)oc1NCCCn1ccnc1	inconclusive [activator, single point]	
O=C(CSc1nc2ccc(Cl)cc2[nH]1)NCCc1ccccc1	inconclusive [activator, single point]	
Cc1ccc(S(=O)(=O)N/N=C/c2ccc(C#N)cc2)cc1	inactive	
COCCCN1C(=O)c2ccc(C(=O)O)cc2C1=O	inconclusive [activator, partial curve, poor fit]	
O=[N+]([O-])/C(C=Nc1ccccc1O)=C\Nc1ccccc1O	inconclusive [activator, full curve, poor fit]	
Cc1ccc(OCCCN2C(=O)C(=O)c3cc(C)ccc32)cc1	active: 20.6 µM	
